The other results are listed elsewhere or left out. Read counts after selection give these values, which scatter widely.
system: SARS-CoV-2 3CLpro (nsp5); test: substrate phage enrichment score (protease-eluted vs HEPES control, +1 offset) (ratio); higher = better cleaved substrate; conditions: selection round: 4; protease elution time: 15 min
Experimental: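 Random heptapeptide substrate phage display (M13 pIII fusion, heptapeptide between an N-terminal biotinylated AviTag GLNDIFEAQKIEWHE and pIII; phages immobilised on streptavidin) eluted by cleavage with 50 nM protease in 20 mM HEPES at 37 °C. Selected phages were NGS sequenced, and the enrichment score is (reads in protease sample + 1)/(reads in HEPES blank-selection control + 1).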

| Substance | substrate phage enrichment score |
| --- | --- |
| SNFAAPD | > 40 |
| TGAAHHH | 0.4 |
| RRESRTQ | 13 |
| GSINRTP | 3.4 |
| RQGWPIT | > 22 |
| SNVNLST | 4.8 |
| TQCGATG | 8.44 |
| ATLQSKM | > 90 |
| NGLSQYR | 3.25 |
| KQGREIS | 0.444 |
| CLQSDAR | > 22 |
| YKKQISC | 0.833 |
| PQLRASK | > 22 |
| TQTLQPH | > 28 |
| PCTEPLT | > 52 |
| RLTSPNE | 2.5 |
| LNNHNAR | 3.06 |
| KCHSPVE | 0.182 |
| HPASMTV | > 36 |
| MQCPSNL | 4 |
| HGTPLLQ | > 27 |
| KEAAHHH | 0.824 |
| SYFQGGS | 2.23 |

| Substance | substrate phage enrichment score |
| --- | --- |
| LRLPHFQ | > 22 |
| RSDNAIG | > 29 |
| PGSEQIP | > 23 |
| GNFPAQN | 1.29 |
| NYNTLQR | 2.64 |
| LADPKLM | 12 |
| HSEGWQC | 0.889 |
| CAPWNTP | 1.3 |
| DTQGGSA | 0.875 |
| TPILQAQ | 411 |
| SPKTTGS | > 29 |
| ICKAPEN | 0.129 |
| PYECTPG | 5.71 |
| AQWINSE | 2 |
| SRVTLPC | > 42 |
| LQCGGQK | > 24 |
| TGKPGLG | 1.89 |
| EHCKIQR | > 55 |
| FRPHIII | 1.24 |
| IQSSTLI | 1.69 |
| LKDRDPR | > 21 |
| SPSLSVQ | 3.1 |
| RTLGEKQ | 0.389 |

| Substance | substrate phage enrichment score |
| --- | --- |
| RGSAAAH | 0.273 |
| PASTMGQ | > 310 |
| QQLSTTV | 0.368 |
| CLVRIIR | 0.5 |
| EARPMSS | > 21 |
| QRHTTSV | 4.42 |
| EQVPRNL | 2.86 |
| FCSDRYP | > 25 |
| VETRLHQ | > 23 |
| SRGRCGL | > 41 |
| TSAKTQE | 0.438 |
| QHSPKLQ | > 41 |
| RIFRVVV | 4.79 |
| RSTCFQG | > 27 |
| VALQSGS | > 89 |
| GYLNPAM | 5.5 |
| RRSPHHW | 4 |
| TPNEPGT | 6.67 |
| AGTKARV | 1.75 |
| QMCVPTD | > 76 |
| PRWKEQS | > 38 |
| SHLLRES | 0.222 |
| RPHICSC | > 23 |

| Substance | substrate phage enrichment score |
| --- | --- |
| SWRSVEP | > 46 |
| SCKHDQP | > 40 |
| HGAAHHH | 0.607 |
| HSRDAQY | 0.225 |
| PAQQGGA | 5.5 |
| DKAAHHH | 0.771 |
| PSAAHHH | 0.879 |
| MRQIPSE | 1.42 |
| GRLPCGR | 3.33 |
| HVPRGNP | 16 |
| TSECSAR | > 35 |
| VVRWPGR | 0.471 |
| KQVTTPW | 1.88 |
| YAGDGER | > 22 |
| PGAAKHC | 4.17 |
| TDKQESS | 4.67 |
| DQVSTKK | 2.5 |
| RQASQYG | 1.45 |
| SPDFRSK | 2.55 |
| RCPATGM | 10.8 |
| PMEGKAP | 6.25 |
| PCRPTNH | 7.5 |
| APAAQLQ | > 44 |

| Substance | substrate phage enrichment score |
| --- | --- |
| CKPTPDH | > 23 |
| TKLNLNG | 0.565 |
| MRVINDE | 0.812 |
| VPYVPRA | 2 |
| SDRWSTK | 1.27 |
| SKTRVSQ | 4.29 |
| QFSTTLQ | > 62 |
| CTIPQPP | > 28 |
| MRESPPK | 7 |
| QNVVGRH | 1.81 |
| YAGSAAA | 4 |
| SPTAHHH | 0.25 |
| RQSNNDR | 0.692 |
| SAAAHHH | 0.703 |
| IGARLHA | 6.33 |
| VTNHHQS | > 24 |
| QHHLPQR | > 21 |
| TGAGARQ | > 35 |
| TRDGMSA | 2.5 |
| ESRDRPT | 0.864 |
| DFSQPRW | 11 |
| LQRTWPN | 12.7 |
| NRAANGH | 1.9 |

| Substance | substrate phage enrichment score |
| --- | --- |
| ASTLQSS | 10.7 |
| GRRCTRQ | 4.17 |
| SQQQNRY | 6.33 |
| IAELPYR | 4.67 |
| ETKVSKQ | > 23 |
| VLGHPTE | > 22 |
| LRPATMQ | > 58 |
| CTPCSNQ | > 159 |
| AGPSYAQ | > 23 |
| KFSVLQG | > 24 |
| VGGSAAA | 0.55 |
| TSQTGAR | 68 |
| TLNFQGG | 5 |
| VHVHETI | 2.29 |
| HQAAHHH | 0.792 |
| SVTKPNS | 0.438 |
| TTRYQAD | 1.19 |
| YATSVSA | > 38 |
| EQYFQGG | 1.59 |
| PQSHGRT | > 25 |
| ATGTGAA | > 32 |
| GSKSTHL | > 31 |
| SERAVVL | > 22 |

| Substance | substrate phage enrichment score |
| --- | --- |
| TETKAVT | 3.15 |
| SGRAINS | 2.12 |
| PRQGCLT | > 40 |
| HPHGASR | 1 |
| TGAPSCC | > 23 |
| VIPSVKQ | > 24 |
| AHHARLQ | > 73 |
| LPQSTLQ | > 31 |
| VHSTDVI | > 26 |
| LYFQGGI | 1.6 |
| DSPPAHH | > 24 |
| SQCSYHQ | 2.08 |
| SRDWGAS | > 44 |
| RGCISAA | > 24 |
| LSSSYSQ | 3.4 |
| PKQGTTP | > 23 |
| PTFPRHH | 1.47 |
| AGNQDTR | > 23 |
| SNFQGGS | 0.714 |
| NVAAHHH | 0.463 |
| VSRPDPA | > 22 |
| SNVRSHA | 5.75 |
| GSACQNR | 12 |

| Substance | substrate phage enrichment score |
| --- | --- |
| LRYHCKG | > 23 |
| QNTGNLT | > 23 |
| SLWLGQT | > 44 |
| KHFPDGV | > 23 |
| LNPHIMQ | 2.11 |
| ASGSTSE | 4.2 |
| TARGMGT | 0.5 |
| VWCSVIE | 1.4 |
| GCVLQAA | > 342 |
| ERRKDKF | > 21 |
| ALECSGW | 1.44 |
| PTTILPS | 0.533 |
| SHRVILQ | > 268 |
| PRNQASP | 0.457 |
| SAGQKWQ | > 22 |
| RPIHHHH | 2.25 |
| LCSNEHR | > 25 |
| GSTWSSH | 1.09 |
| QAAHHHH | 0.706 |
| YRPKGFL | 2.92 |
| ITQCRGA | 0.571 |
| WHQKTNR | > 31 |

Source: the supplement of paper PMC10185492
